Experimental data from PubChem BioAssay AID1508624 (National Center for Advancing Translational Sciences (NCATS), 2021).
Screen size: about 48,000 compounds; about 120 (0.25%) were called active. Another 4% or so got no clear call; they are omitted. Calls come from the whole dose curve; as a rule, active = well fitted activation curve with a large enough effect; inconclusive = small, poorly fitted or top-dose-only effect, or another doubt; inactive = no such curve, though single readings can be large or run the other way. The list shows a part of the results.

Experiment: Primary qHTS for Identification of Small Molecule Activators of Huntingtin-Antisense Promoter Activity; note: nearly all actives have a fitted effect of over 55% in size
Conditions: HEK293 HTT-AS promoter firefly luciferase reporter, 24 h; series mostly up to 57.5 µM; activity change, positive = activation: at the top concentration
Method in brief: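 HEK293 Fluc reporter, 2,500 cells/well, 24 h pre-culture; cpds up to 57.5 uM final, 24 h 37 degrees C; Dual-Glo, 10 min RT; normalized vehicle = 0%, zero RLU = -100%.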

Activity change, positive = activation, inactive:
COc1cccc(CNC(=O)c2c(C)oc3ncnc(N4CCOCC4)c23)c1 -18.9%, COc1ccc(N2CCN(C(=O)C3Cc4ccccc4N3C(C)=O)CC2)cc1 (centres undefined) -23.2%, Cc1cc(C)cc(N2CCn3c2nc2c3c(=O)n(C/C=C/c3ccccc3)c(=O)n2C)c1 -4.57%, CCN(CC)CCCC(C)Nc1ccnc2cc(Cl)ccc12 (centres undefined), COc1cccc(CC(=O)Nc2ccc(-c3nc4ccccc4s3)cc2Cl)c1 16.4%, CCOc1cc(CNC(=O)C2CCN(c3nc4ccccc4[nH]3)CC2)cc(OCC)c1OCC -21.2%, Cc1ccc(C)c(NC(=O)CCOc2ccccc2)c1 -1.01%, CS(=O)(=O)c1ccc([C@@H](O)[C@@H](CF)NC(=O)C(Cl)Cl)cc1 -12.3%, Cc1ccc2nc(-c3ccc(F)cc3)c(NC(C)(C)CC(C)(C)C)n2c1 -66%, Cc1c(Cl)cccc1NC(=O)CSc1ccc(-c2ccccn2)nn1 -14.9%, Cc1nn2c(=O)cc(COC(=O)c3ccccc3NC(=O)c3cccs3)nc2s1 -12.2%, CC(C)NC(=O)c1ccc2c(c1)N(Cc1cccc(Cl)c1)C(=O)c1ccccc1S2=O (centres undefined) -5.9%, CCc1ccccc1NS(=O)(=O)c1ccc2c(c1)CCCN2C(=O)C1CCC1 -30.7%, COc1ccc(NC(=O)CN2CCN(Cc3ccccc3Cl)S2(=O)=O)cc1Cl -27.7%, CCCN1C(=O)C(O)(CC(=O)c2ccc(C(C)C)cc2)c2ccccc21 (centres undefined) -26.6%, COC(=O)c1sc2c(c1C)c(=O)n(-c1ccccc1)c(=O)n2CC(=O)Nc1cccc(C)c1 -27.4%, CN1CCN(Cc2c(O)ccc3cc(-c4ccc(Cl)cc4)c(=O)oc23)CC1 -8.41%, COc1cc(OC)c(NC(=O)N2CCC(CN3CCOCC3)CC2)cc1Cl 3.57%, CCN(C(=O)Cn1c(=O)oc2cc(S(=O)(=O)N3CCCCC3)ccc21)c1ccccc1 -16.9%, CCc1cccc(NC(=O)CCc2c(C)nc3c(-c4ccccc4)c(C)nn3c2C)c1 -14%, CC(C)OCCCNC(=O)Cc1ccc(NC(=O)N2CCCCc3ccccc32)cc1 -0.837%, CCc1ccccc1NC(=O)Cn1c(=O)n(-c2cccc(C)c2)c(=O)c2c1c1cc(OC)ccc1n2C -7.82%, CCOc1ccccc1N(C)C(=O)c1cc2c(s1)-c1ccccc1OC2 -19.7%, CCOC(=O)CC(NC(=O)c1cc2c(=O)n3cccc(C)c3nc2s1)c1ccc(OCC)c(OC)c1 (centres undefined) 0.992%, Cc1ccc(NC(=O)Cn2c(=O)n(CC(=O)NCCc3ccccc3)c(=O)c3ccccc32)cc1C -18.3%, CCCCc1nc(SCC(=O)Nc2ccc(S(N)(=O)=O)cc2)n[nH]1 -0.89%, CCc1cccc(NC(=O)Nc2cn(C)c(=O)c3ccccc23)c1 -31%, COc1cccc(NC(=O)C2CCN(S(=O)(=O)c3c(C)noc3C)CC2)c1 -1.71%, COc1ccc(-c2noc(CCC(=O)Nc3cccc(C)c3C)n2)cc1OC -31.3%, Cc1ccc(S(=O)(=O)c2cn(CC(=O)Nc3ccc(F)cc3)c3cc4c(cc3c2=O)OCO4)cc1 -15.5%, O=C(Cn1c(=O)n(-c2ccc(Cl)cc2)c(=O)c2c3c(sc21)CCCCC3)Nc1cccc(Cl)c1 -9.89%, O=C(NCc1cccc(Cl)c1)c1cc2c(s1)-c1ccccc1SC2 -15.3%, Cc1ccc2cccc(NC(=O)c3cccc4c(Br)cccc34)c2n1 -2.85%, COc1ccc(C)cc1NC(=O)C(=O)NCC(c1cccnc1)N1CCN(c2ccccc2F)CC1 (centres undefined) -29.6%, CCn1c(=O)n(-c2ccc3c(c2)OCO3)c2nc(-c3cccc(OC)c3OC)nc(C(N)=O)c21 -3.53%, CCCn1cc(S(=O)(=O)c2ccc(C)c(C)c2)c(=O)c2cc(F)c(N3CCC(C)CC3)cc21 -8.77%, COc1ccc(N2CCN(C(=O)c3ccc4c(c3)N(Cc3cccc(Cl)c3)C(=O)c3ccccc3S4(=O)=O)CC2)cc1 -6.04%, CC1=C(C(=O)Nc2cc(Cl)ccc2C)C2(CCCCC2)OC1=O -20.4%, O=C(NCCc1csc(-c2ccc(F)cc2)n1)c1ccco1 -4.39%, Cc1cc(C)n2nc(CNC(=O)c3ccccc3Cl)nc2n1 1.38%, Cc1cc(C)cc(NC(=O)CCc2nnc3n(C)c(=O)c4sccc4n23)c1 -1.74%, CCOc1ccc(NC(=O)C2CCN(c3nc4ccccc4[nH]3)CC2)cc1 -3.78%, CCSc1ccc(C(=O)Nc2ccc(-c3nc4ccc(C)cc4s3)cc2)cc1 -13.9%, COC(=O)c1c(SC)nc2ccccc2c1OCc1ccccc1Cl -24.9%, CCOc1ccc(CN2CCc3nc(N4CCN(c5ncccn5)CC4)ncc3C2)cc1OC -43.1%, CCC(CC)C(=O)OCc1cc(=O)n2nc(C3CCCCC3)sc2n1 13.3%, Cc1ccc(-c2c(C(=O)N3CCN(c4cccc(C)c4)C(C)C3)oc(=O)c3ccccc23)cc1 (centres undefined) -37.6%, COC(=O)C1=C(C)N=C2SCCC(=O)N2C1c1ccc(OCc2ccccc2)c(OC)c1 (centres undefined) -9.66%, CCOC(=O)c1c(C)[nH]c(C)c1S(=O)(=O)N(C)CC(=O)N1CCN(c2ccc(Cl)cc2)CC1 -9.42%, CCOc1ccc(N2C(=O)CS(=O)(=O)C23C(=O)N(Cc2cccc(Cl)c2)c2ccccc23)cc1 (centres undefined) -24.8%, CC(C)(C)OC(=O)N1CCC(c2c(C(=O)NCCc3ccsc3)cnn2-c2ccccc2Cl)CC1 -18.9%, CCc1c(C)nc2nncn2c1Nc1ccc(Cl)cc1 -32.9%, CCc1nc2ccccc2n2c(-c3ccccc3)c3c(=O)n(C)c(=O)n(C)c3c12 -7.11%, COc1ccc(-n2c(=O)c3c4c(sc3n(Cc3ccc(C)cc3C)c2=O)CCC4)c(OC)c1 1.94%, CCC(C(=O)Nc1ccc(C(C)=O)cc1)n1cnc2nc3c(cc2c1=O)CCCC3 (centres undefined) 3.15%, CCOc1ccccc1NS(=O)(=O)c1ccc2c(c1)CC(C)N2C(=O)C1CC1 (centres undefined) -31.1%, COc1ccc(OC)c(CNC(=O)Cn2ncc3c([nH]c4ccc(C)cc43)c2=O)c1 -3.02%, COc1cc(C(CC(=O)NCc2ccccc2)N2Cc3ccccc3C2=O)cc(OC)c1OC (centres undefined) -8.31%, CCSc1ncc(Cl)c(C(=O)Nc2ccc(S(=O)(=O)Nc3ncccn3)cc2)n1 -8.96%, COc1cccc(CNC(=O)CCCn2ncn3c(cc4occc43)c2=O)c1OC -10.2%, CCCOC(C(=O)OC1CCN(C)CC1)(c1ccccc1)c1ccccc1 -11.5%, Cc1cccc(C(=O)Nc2nc3nc(-c4ccccc4)cc(=O)n3[nH]2)c1 -3.1%, CC(C)(C)OC(=O)N1CCC(c2c(C(=O)Nc3ccc4c(c3)OCCO4)cnn2-c2ccc(F)cc2F)CC1 -64.3%, CCOCCn1c(C2CCN(CCc3ccc(C(C)(C)C(=O)O)cc3)CC2)nc2ccccc21 -10.3%, COc1ccc(N2CC(NC(=O)COc3ccc(F)cc3)CC2=O)cc1OC (centres undefined) -18.1%, CCOC(=O)C(=O)NCC(c1cccnc1)N1CCN(c2ccccc2)CC1 (centres undefined) -6.16%, CCOC(=O)CC(NC(=O)c1cc2cc(Br)cc(OC)c2oc1=O)c1ccc(OC)cc1 (centres undefined) -15.9%, O=C(Nc1cccc(OCc2cc(=O)n3ccccc3n2)c1)c1ccccc1Br 15.1%, CCC1CN(C(=O)NCc2ccccc2)c2cc(Cl)ccc2O1 (centres undefined) -27.6%, CCN(CC)c1cc(C)c2cc(NC(=O)c3ccccc3Cl)ccc2n1 -10.7%, CCOC(=O)c1ccc(NC(=O)CSc2ccc(-c3ccccn3)nn2)cc1 -21.5%, COc1ccc(S(=O)(=O)NCCc2nnc3ccc(SCC(=O)Nc4cc(C)cc(C)c4)nn23)cc1 -16%, Cn1c(=O)n(C)c2cc(N3CCOCC3)c(NC(=O)c3ccc(Cl)cc3)cc21 -8.58%, O=C(NCc1ccc2c(c1)CCN2C(=O)c1ccncc1)c1ccccc1Cl 14.3%, Cn1c(=O)c2c(nc(CN3CCN(c4ccccc4F)CC3)n2Cc2ccccc2F)n(C)c1=O 7.25%, COc1ccc(OC)c(CCNC(=O)c2cc3cccc4c3n2CC(C)S4)c1 (centres undefined) -20.9%, Cn1c2ccccc2c2c(C(=O)N3CCN(c4cccc(Cl)c4)CC3)cn(C3CCCCC3)c(=O)c21 -18.6%, COc1ccccc1CCNC(=O)C(=O)NCC(c1ccco1)S(=O)(=O)c1ccc(F)cc1 (centres undefined) -12.4%, COc1cccc(N2CCN(C(=O)C3CCCN(S(=O)(=O)c4ccc5c(c4)oc(=O)n5C)C3)CC2)c1 (centres undefined) -33.5%, Cc1ccc2nc(COc3ccccc3NC(=O)c3ccccc3C)cc(=O)n2c1 -4.68%, COc1ccc(-c2nnc(SCC(=O)Nc3cc(OC)ccc3OC)nc2-c2ccc(OC)cc2)cc1 5.47%, O=S(=O)(c1ccc(Cl)cc1)c1nc(-c2cccc(Br)c2)oc1NCc1ccccc1 -8.93% [at 11.5 µM, percent change from vehicle, -100% = no light], CCc1cccc(C)c1NC(=O)Cn1c(=O)n(-c2ccc(C)cc2)c(=O)c2c1cnn2C -7.2%, COc1ccc(CCn2c(=O)c3cccnc3n(CC(=O)Nc3c(C)cccc3C)c2=O)cc1OC -5.43%, Cc1cccc(CCNC(=O)c2ccc3c(c2)nc2n3CCC(C)C2)c1 (centres undefined) 24.9%, COc1cc2c(cc1OC)C1CC(=O)C(CC(C)C)CN1CC2 (centres undefined) -10.4%, Cc1cccc(-c2noc(-c3ccc(NCc4ccco4)c([N+](=O)[O-])c3)n2)c1 21.7%, O=C(c1ccco1)N1CCN(c2nc3c(F)cc(F)cc3s2)CC1 21.5%, Nc1ccc(S(=O)(=O)NC(=O)c2ccccc2)cc1 -10.8%, COc1cccc(-c2ccc(-c3noc(-c4ccccc4Br)n3)c(OC)n2)c1 -0.58%, CCC(=O)N1c2ccccc2CC1C(=O)NCc1cccc(OC)c1OC (centres undefined) -7.11%, CCOc1ccc(CCNC(=O)C2CCN(Cc3nc(-c4ccc(OC)c(OC)c4)oc3C)CC2)cc1OCC -2.28%, COc1cc(-c2nc(-c3ccc4c(c3)[nH]c(=O)n4C)no2)cc(OC)c1OC -4.05%, COc1ccc(-n2c(/C=C/c3cccc(C(F)(F)F)c3)nc3ccccc3c2=O)cc1Cl -17.5%
